Experimental data as given in the supplement of paper PMC4166925.
± gives the standard deviation of the averaged measurements. In all, about 33,000 sequences were measured (“E-score (dimensionless, -0.5 to 0.5)”: median about -0.049, highest 2% from about 0.37 on). The list shows a part of the results.

tested on: T1, PmTbr T-box DNA-binding domain (GST fusion); experiment: PBM E-score of 8-mer (E-score (dimensionless, -0.5 to 0.5)); Tbr is Tbrain of the sea star Patiria miniata (Pm) or the sea urchin Strongylocentrotus purpuratus (Sp); higher = stronger binding preference; most listed sequences are background and not binding sites; settings: the construct has about 5 more residues each side
T1 sequence: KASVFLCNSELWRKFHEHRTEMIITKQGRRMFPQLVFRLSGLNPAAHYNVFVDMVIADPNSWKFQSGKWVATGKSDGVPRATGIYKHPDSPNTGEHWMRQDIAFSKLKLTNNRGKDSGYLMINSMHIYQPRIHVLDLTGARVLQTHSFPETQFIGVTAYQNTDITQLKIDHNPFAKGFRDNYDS
Outline: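 Expression of GST-fused Tbr T-box DNA-binding domains, each holding the full T-box plus roughly five flanking residues, was carried out in BL21 E. coli at 20 °C, with purification by glutathione affinity chromatography. Universal Agilent arrays made double-stranded by primer extension were incubated with the protein at 200 nM in PBS (pH 7.5), then scanned and quantified. All ungapped 8-mers were scored from probe intensities, and each received an enrichment E-score from the Universal PBM Analysis Suite, averaged over duplicate arrays.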

| Sequence | PBM E-score of 8-mer |
| --- | --- |
| TAGGCACA | 0.0942 ± 0.044 |
| GTGATTTA | 0.143 ± 0.0061 |
| AATCGTGG | -0.0756 ± 0.096 |
| CCCTCACG | 0.133 ± 0.0098 |
| AATTTTTG | -0.0693 ± 0.0047 |
| AGACGACG | -0.0358 ± 0.04 |
| ATCCAGTA | 0.0505 ± 0.048 |
| GCATGCCC | -0.224 ± 0.014 |
| GGGTTGAC | 0.109 ± 0.014 |
| AAAAGGAG | 0.0598 ± 0.069 |
| AAGTCAAA | -0.0539 ± 0.12 |
| TGAGGACA | 0.034 ± 0.011 |
| AAGCACGG | -0.206 ± 0.036 |
| GCTCGCAC | 0.42 ± 0.025 |
| TCTAACCA | -0.146 ± 0.0014 |
| CGGCCGGA | -0.195 ± 0.067 |
| CCTACAGC | -0.089 ± 0.04 |
| AAACATTA | -0.207 ± 0.019 |
| CCCACAGG | 0.0869 ± 0.067 |
| CCGCTTAG | -0.233 ± 0.072 |
| ACGCACTA | -0.0928 ± 0.029 |
| AGCGCGGA | 0.125 ± 0.017 |
| CTTTGCCC | -0.12 ± 0.005 |
| ATGTATGG | -0.1101 ± 0.00014 |
| CCCCTGAA | -0.175 ± 0.063 |

| Sequence | PBM E-score of 8-mer |
| --- | --- |
| AGACCCCC | -0.33 ± 0.033 |
| ATCTATTA | -0.193 ± 0.014 |
| CATCCAAG | -0.0542 ± 0.0078 |
| CCTTCAAG | -0.188 ± 0.024 |
| AGCACGAT | 0.083 ± 0.032 |
| AAGGGTAG | 0.0196 ± 0.05 |
| GCTAGTTA | 0.115 ± 0.036 |
| GCAGAATA | -0.113 ± 0.055 |
| CAACTCAC | 0.123 ± 0.049 |
| ACGAGCCC | -0.0405 ± 0.074 |
| TGAACAAA | -0.0442 ± 0.086 |
| ATTCTATG | -0.17 ± 0.04 |
| AGGATATG | -0.239 ± 0.013 |
| ATACCGAA | -0.129 ± 0.12 |
| CAGTCTGG | -0.183 ± 0.073 |
| ATACGGGC | -0.123 ± 0.0081 |
| ATGTTCAA | -0.131 ± 0.037 |
| CCGCCTTA | -0.102 ± 0.021 |
| ACAATGCA | -0.0697 ± 0.0045 |
| CAGGTTGG | 0.133 ± 0.012 |
| CCGCACGG | -0.162 ± 0.049 |
| CGAAAGCC | -0.0801 ± 0.046 |
| CGTGGTTA | -0.0157 ± 0.13 |
| AAGACACG | 0.153 ± 0.012 |
| AGTCCGTC | -0.107 ± 0.021 |

| Sequence | PBM E-score of 8-mer |
| --- | --- |
| AAGTTCCT | -0.0443 ± 0.12 |
| AGTACTAA | -0.101 ± 0.061 |
| AGATTCCA | -0.0318 ± 0.013 |
| ATAGTAGA | -0.27 ± 0.06 |
| ACGATGCA | -0.102 ± 0.0098 |
| AGTATCTG | -0.212 ± 0.029 |
| ACTGTTGA | 0.123 ± 0.062 |
| TATATGAA | -0.24 ± 0.018 |
| GAGGTATA | -0.0519 ± 0.068 |
| GGCCAACC | -0.0323 ± 0.0049 |
| TATACGAA | -0.237 ± 0.031 |
| AATGATAA | 0.0274 ± 0.032 |
| ACACTCCT | 0.228 ± 0.019 |
| AATTCCAC | 0.0936 ± 0.017 |
| TCTGGCCA | -0.246 ± 0.046 |
| ATGGGGCG | 0.0273 ± 0.067 |
| GCGATACC | 0.204 ± 0.013 |
| CCTTAGCA | 0.233 ± 0.046 |
| AGAACTGA | -0.246 ± 0.072 |
| ATCGACGC | 0.176 ± 0.027 |
| GGCCAGAC | -0.265 ± 0.087 |
| ATTTAGTA | -0.18 ± 0.034 |
| GGATTAAA | -0.0843 ± 0.021 |
| GCGGTTGA | -0.0648 ± 0.031 |
| AAACGTAT | -0.162 ± 0.024 |

| Sequence | PBM E-score of 8-mer |
| --- | --- |
| ACTGGCAA | 0.106 ± 0.035 |
| ACCGTAAA | -0.133 ± 0.057 |
| GCGCAAAA | 0.127 ± 0.053 |
| AAATGTGG | 0.0797 ± 0.052 |
| CACGTTGC | 0.106 ± 0.088 |
| AGGGAGTA | -0.0737 ± 0.034 |
| AAGTTCAT | -0.0912 ± 0.041 |
| GAGCGCGC | 0.0105 ± 0.017 |
| GGACCCCC | -0.292 ± 0.044 |
| ACTTGCAC | 0.268 ± 0.0028 |
| AGACCACC | -0.134 ± 0.033 |
| AGGCGGCC | -0.268 ± 0.055 |
| AGGTCGAC | 0.0918 ± 0.031 |
| GGGTACTA | -0.193 ± 0.027 |
| AACGTTAG | -0.0634 ± 0.026 |
| CACTCCTA | 0.0198 ± 0.016 |
| TCCGCACA | 0.104 ± 0.058 |
| ATAAAAAA | -0.114 ± 0.14 |
| CGTGGCGA | 0.0853 ± 0.039 |
| CTAAATTC | -0.0346 ± 0.053 |
| CGGTTCAC | 0.153 ± 0.021 |
| AAGACGTA | -0.0429 ± 0.003 |
| AAGCGGAT | 0.0606 ± 0.055 |
| GACTAAGA | -0.204 ± 0.013 |
| ATGAGGTA | -0.093 ± 0.027 |

| Sequence | PBM E-score of 8-mer |
| --- | --- |
| ATCAGTTA | -0.137 ± 0.022 |
| CTTTTCTA | 0.0811 ± 0.085 |
| ACGATGAT | 0.0681 ± 0.019 |
| AGGTGGAT | 0.104 ± 0.022 |
| CTTCTAAA | -0.0714 ± 0.043 |
| TAGACTGA | -0.0772 ± 0.027 |
| CGATCCAG | -0.0702 ± 0.018 |
| GTTCGGCA | -0.118 ± 0.015 |
| ACTCACCA | -0.0425 ± 0.12 |
| ACGCTGAG | -0.127 ± 0.031 |
| AAAATACC | -0.186 ± 0.053 |
| AAGACCCC | -0.317 ± 0.022 |
| TAATGGAA | -0.136 ± 0.095 |
| CGAATCAC | 0.124 ± 0.029 |
| AAGGAACC | -0.0959 ± 0.045 |
| AAAAGTAT | 0.0149 ± 0.062 |
| GTGTTCTA | 0.231 ± 0.011 |
| ACGGCGTA | -0.0493 ± 0.027 |
| ATTTGAGA | -0.154 ± 0.037 |
| AGCAAGCT | -0.0427 ± 0.01 |
| AATCAACC | -0.0985 ± 0.018 |
| AGAAGTGC | 0.232 ± 0.0082 |
| AACCTCGA | 0.0311 ± 0.022 |
| CTAAGAGC | -0.392 ± 0.031 |
| AGGCCCAC | -0.165 ± 0.082 |

| Sequence | PBM E-score of 8-mer |
| --- | --- |
| AAGCCGAC | -0.0913 ± 0.054 |
| AACTTGGA | -0.064 ± 0.028 |
| ACTTCCGA | 0.0946 ± 0.044 |
| CCACCTCC | 0.305 ± 0.024 |
| CGTTCAGC | 0.0353 ± 0.045 |
| GAATACGC | -0.0852 ± 0.011 |
| ACCGTCAA | 0.115 ± 0.0075 |
| AACCGCGA | 0.303 ± 0.024 |
| AGGGCGAC | 0.163 ± 0.066 |
| GGGATGAC | 0.00826 ± 0.091 |
| TCACCGCA | -0.0333 ± 0.086 |
| CCAGCTGG | -0.184 ± 0.026 |
| CGTCATAG | -0.129 ± 0.0068 |
| GAACATAA | 0.00348 ± 0.022 |
| TCGGGTAA | 0.0151 ± 0.028 |
| CGGCCTGC | -0.195 ± 0.06 |
| GCCTAAAC | 0.0865 ± 0.05 |
| ATGGCCGA | -0.164 ± 0.039 |
| GGCGGCAA | 0.162 ± 0.023 |
| GCGGAGAC | -0.152 ± 0.04 |
| AGCGCGTG | 0.27 ± 0.025 |
| AGTAGTGC | -0.0779 ± 0.0032 |
| CGGAAGCC | -0.237 ± 0.06 |
| AGTGGCGA | 0.3324 ± 0.0019 |
| GCAACATA | -0.0299 ± 0.062 |

| Sequence | PBM E-score of 8-mer |
| --- | --- |
| GTGTCTGA | 0.296 ± 0.0069 |
| GTGTCCTA | 0.0998 ± 0.015 |
| GCGAAGAA | 0.246 ± 0.0095 |
| ATTCCACG | -0.0485 ± 0.025 |
| TGACACCA | 0.427 ± 0.02 |
| TCGAATAA | -0.273 ± 0.066 |
| CGCCCAAG | -0.0387 ± 0.12 |
| CTCGGTCC | -0.173 ± 0.032 |
| CCAGACAC | 0.231 ± 0.046 |
| CATCGCCC | -0.00812 ± 0.048 |
| CTAAACTA | -0.136 ± 0.052 |
| CGGTTACA | 0.113 ± 0.013 |
| CATTACCC | -0.23 ± 0.014 |
| CGTGATAG | 0.23 ± 0.012 |
| TGATTAAA | 0.0272 ± 0.034 |
| ACCGAGAT | -0.0879 ± 0.041 |
| ACAGGCTA | -0.14 ± 0.041 |
| ATTTTAAG | -0.26 ± 0.015 |
| CATTTTCG | -0.00885 ± 0.013 |
| AAGGGCGT | 0.233 ± 0.028 |
| AGGTAACG | 0.0205 ± 0.019 |
| CACTCTCG | 0.254 ± 0.042 |
